Data published in paper PMC3462613 (Biochemical Journal, 2012).

Target: T1, GST (glutathione transferase)–Gemin2 (human, UniProt O14893 1-280)
T1 sequence: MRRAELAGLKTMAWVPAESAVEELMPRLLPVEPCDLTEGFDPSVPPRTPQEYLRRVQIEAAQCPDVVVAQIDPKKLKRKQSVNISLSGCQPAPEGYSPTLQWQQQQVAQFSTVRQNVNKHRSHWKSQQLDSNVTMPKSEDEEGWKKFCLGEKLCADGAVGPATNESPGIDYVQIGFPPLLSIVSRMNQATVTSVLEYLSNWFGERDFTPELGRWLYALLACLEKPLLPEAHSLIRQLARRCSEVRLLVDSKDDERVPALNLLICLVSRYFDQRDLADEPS
Assay: pull-down

B1: full-length SMN D44V (natural protein)
chain: not shown
- fold difference in binding from wild-type SMN: ≤ 2 fold
- fold efficiency of binding, without detergent against with detergent: 3 fold
